# Values joined by “and” are separate entries in the source; they are usually repeats but may differ in a detail not shown here. Equal values may be shown once. Among all 16,000 compounds or so, about 40 (0.2%) were called active. Roughly 1% stayed inconclusive and do not appear here. The call rests on the fitted dose curve; in most records, active means well fitted activation curve with a large enough effect; inconclusive means small, poorly fitted or top-dose-only effect, or another doubt; inactive means no such curve, though single readings can be large or run the other way. This is one part of the list.
# Target: Rap guanine nucleotide exchange factor 4 (Homo sapiens) (UniProt Q8WZA2)
# Assay: Validation qHTS for agonist of cAMP-regulated guanine nucleotide exchange factor 4 (EPAC2);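 on activation: exchange makes BODIPY-GDP fluorescence drop when released from Rap1B; series mostly up to about 150 µM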
# Conditions: EPAC2 Rap1B BODIPY-GDP exchange, fluorescence; activation: active compounds read high
# How it was run: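 Signal normalized against 6.5 mM cAMP as agonist control. Mix of EPAC2 (100 nM), RAP1B-BODIPY-GDP (250 nM) and GDP (50 uM) was read kinetically at 480/540 nm, every 5 min over 30 min, after 5 min room-temperature incubation with compound.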
# On the % scale 0 is the no-effect control and ±100 the full control effect; potency means the concentration at half of the fitted maximal effect.
# Chain of UniProt Q8WZA2 (Q8WZA2 whole entry, looked up): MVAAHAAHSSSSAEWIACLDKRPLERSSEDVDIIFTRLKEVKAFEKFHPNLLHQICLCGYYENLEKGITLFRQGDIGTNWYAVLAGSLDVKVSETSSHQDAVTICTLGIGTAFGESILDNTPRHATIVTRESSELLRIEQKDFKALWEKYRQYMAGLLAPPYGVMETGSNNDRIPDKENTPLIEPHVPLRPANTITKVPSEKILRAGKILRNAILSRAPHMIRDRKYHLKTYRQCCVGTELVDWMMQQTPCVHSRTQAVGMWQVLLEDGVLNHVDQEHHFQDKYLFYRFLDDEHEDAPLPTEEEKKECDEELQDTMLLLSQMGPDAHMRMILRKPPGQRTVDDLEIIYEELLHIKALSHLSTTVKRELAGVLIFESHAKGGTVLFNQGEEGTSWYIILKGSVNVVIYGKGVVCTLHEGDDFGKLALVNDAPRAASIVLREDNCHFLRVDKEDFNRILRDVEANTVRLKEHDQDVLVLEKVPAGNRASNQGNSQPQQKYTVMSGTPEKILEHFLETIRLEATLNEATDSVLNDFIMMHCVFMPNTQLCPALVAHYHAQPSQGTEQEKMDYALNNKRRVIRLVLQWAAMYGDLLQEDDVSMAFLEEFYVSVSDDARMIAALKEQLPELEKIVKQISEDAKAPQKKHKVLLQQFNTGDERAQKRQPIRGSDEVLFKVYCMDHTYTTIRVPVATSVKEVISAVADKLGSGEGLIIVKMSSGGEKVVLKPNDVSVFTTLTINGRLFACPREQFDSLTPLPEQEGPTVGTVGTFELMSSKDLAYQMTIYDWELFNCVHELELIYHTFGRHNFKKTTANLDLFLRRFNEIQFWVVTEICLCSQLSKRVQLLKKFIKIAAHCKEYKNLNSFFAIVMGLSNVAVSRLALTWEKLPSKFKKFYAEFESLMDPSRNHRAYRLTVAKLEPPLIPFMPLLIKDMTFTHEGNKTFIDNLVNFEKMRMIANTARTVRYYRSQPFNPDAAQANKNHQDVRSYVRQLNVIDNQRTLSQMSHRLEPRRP
SMILES,activation,Potency
COc1ccccc1-c1ccc2ncnc(NCc3cnc(C)cn3)c2c1,inactive: -5.51%,–
CCOC(=O)C(C)(C)Oc1ccc(Cl)cc1,inactive: -10.6% and inactive: -2.17% and inactive: -40.2%,–
COc1ccc(OC)c(C(=O)N(Cc2cc3cccc(C)c3nc2N2CCC(O)CC2)C2CC2)c1,inactive: 0.8%,–
c1cnc2c(c1)ccc1cccnc12,inactive: -12.4%,–
Cc1noc(C)c1-c1nc(Nc2ccc(F)cc2)c2ccccc2n1,inactive: -20.8%,–
CN1CCCC(CC2c3ccccc3Sc3ccccc32)C1 (stereo not drawn),inactive: -23.6%,–
Cc1nc2cnc(N3CCN(C)CC3)nc2n(CCC#N)c1=O,inactive: 2.78%,–
COc1ccccc1N1CCN(CC(O)COc2cccc3ccccc23)CC1 (stereo not drawn),inactive: 1.07% and inactive: -57%,–
CCCN(CCC)C[C@@H]1CCCCN1CCNC(=O)N1c2ccccc2C(=O)Nc2cccnc21,inactive: -19.5%,–
CCN1C(=O)NC(c2ccccc2)C1=O (stereo not drawn),inactive: -11.3%,–
COc1ccc(CN2CCOc3ccc(CN4CCN(CCO)CC4)cc3C2)c2ccccc12,inactive: -3.68%,–
COc1ccccc1CN1CCC2(CC1)CCN(C(=O)c1cccn1C)CC2,inactive: -1.25%,–
COc1cccc(-c2cncnc2NCCN2CCOCC2)c1,inactive: -4.35%,–
CCCCCCCCCCCCOS(=O)(=O)O,inactive: -36.3%,–
COc1ccc(CN2CC[C@H]3C=CC[C@@H](C(=O)Nc4ccccc4)[C@H]3C2=O)cc1OC,inactive: -4.97% and inactive: -9.67%,–
Cc1cnc(C)c(-c2cccc3c2OC(CNC(=O)/C=C/c2ccc(F)c(F)c2)C3)n1 (stereo not drawn),inactive: -22.3%,–
CCCN(CCC)C(=O)C(CCC(=O)O)NC(=O)c1ccccc1 (stereo not drawn),inactive: -9.04% and inactive: -14.5% and inactive: -8.28%,–
O=c1cnc2cnc(Oc3cccc(Cl)c3)nc2n1C[C@H]1CCCO1,inactive: 6.37%,–
CCCC[n+]1c(C)ccc2ccccc21,inactive: -26.2%,–
COc1ccc(CN2CC[C@H]3C=CC[C@@H](C(=O)Nc4ccc(Cl)cc4Cl)[C@H]3C2=O)cc1OC,inactive: -10.4%,–
COc1ccc2c(c1)N(C[C@H](C)CN(C)C)c1ccccc1S2,inactive: 0.214%,–
CCOC(=O)C1CCCN(C(=O)c2cnn(-c3ncc4c(n3)-c3ccccc3CC4)c2C)C1 (stereo not drawn),inactive: -8.12%,–
COC(=O)c1ccccc1O,inactive: -17.4%,–
Cc1cnc(C)c(-c2cc(F)c3c(c2)CC(CNC(=O)c2cccc(Cn4cccn4)c2)O3)n1 (stereo not drawn),inactive: -11.3%,–
CC(COc1ccccc1)NN (stereo not drawn),inactive: -0.165%,–
N#Cc1ccc(/C=C2/C=Cc3ccccc32)cc1,inactive: -21.8%,–
COc1ccc(CN2CCCC(n3cc(C(=O)NC4CCCC4)nn3)C2)c2ccccc12 (stereo not drawn),inactive: 9.62%,–

SMILES,activation,Potency
Cc1c(C(=O)N2CC3CCC2C3)sc2ncnc(NCCc3c[nH]c4ccccc34)c12 (stereo not drawn),inactive: -17%,–
COC(=O)N1CCC2(CC1)CN(C(=O)Nc1ccc(OC)cc1)C2,inactive: -17.3%,–
O=Cc1ccnc2ccccc12,inactive: -11.8%,–
O=C(NC1CC1)[C@@H]1C[C@H](Sc2nc3ccccc3[nH]2)CN1CC1CCCCC1,inactive: -2.88%,–
CC[C@H](CC[C@@H](C)[C@H]1CC[C@H]2[C@@H]3CC=C4C[C@@H](O)CC[C@]4(C)[C@H]3CC[C@]12C)C(C)C,inactive: -18.6%,–
Cc1cccc(CNc2cc(-c3cccc(NS(C)(=O)=O)c3)ncn2)c1,inactive: -16%,–
N#CC(c1ccc(Cl)cc1)c1c(Cl)cc(-n2ncc(=O)[nH]c2=O)cc1Cl (stereo not drawn),inactive: -19.2%,–
O=c1ccc2ccc(O)c(O)c2o1,inactive: -19.2%,–
O=S(=O)(NCc1ccccc1Br)c1ccccc1Br,inactive: -19.2%,–
COc1ccccc1-c1ccc2ncnc(N(C)C)c2c1,inactive: -13.8%,–
OC1(c2cccnc2)CCN(Cc2ccc3c(c2)CN(Cc2ccc(F)c(F)c2)CCO3)CC1,inactive: -10.7%,–
CC(=O)NCCc1c[nH]c2ccc(O)cc12,inactive: -9.2% and inactive: -3.51% and inactive: -13.6%,–
COc1cc(OC)c(C(=O)CCCN2CCCC2)c(OC)c1,inactive: 9.91%,–
CCCc1nc2cccnc2n1C1CCN(C(=O)Cn2nccc2C)CC1,inactive: -0.685%,–
O=C(C[n+]1cccc2cccc(O)c21)c1ccccc1,inactive: -0.768%,–
O=C1[C@H](Cc2ccccc2)NC/C=C\C[C@H](c2ccco2)N1Cc1ccccc1,inactive: -7.31%,–
CN1CCN(c2ncc3nc(-c4cccs4)c(=O)n(CCc4ccccc4)c3n2)CC1,inactive: -28%,–
O=C(NCC1Cc2cccc(-c3ncccn3)c2O1)C1CCCO1 (stereo not drawn),inactive: -1.15%,–
C/C1=C2N=C(/C=C3N=C(/C(C)=C4\[N-][C@@](C)([C@@H]5N=C1[C@](C)(CCC(=O)NCC(C)OP(=O)(O)O[C@H]1[C@@H](O)[C@@H](n6cnc7cc(C)c(C)cc76)O[C@@H]1CO)[C@H]5CC(N)=O)[C@@](C)(CC(N)=O)[C@@H]4CCC(N)=O)[C@@](C)(CC(N)=O)[C@@H]\3CCC(N)=O)C(C)(C)[C@@H]/2CCC(N)=O.CC(=O)O.[Co] (stereo partly drawn),–,active: 56.2 µM
O=C(/C=C/c1ccc(O)c(O)c1)O[C@@H]1C[C@@](O)(C(=O)O)C[C@H](O)[C@@H]1O,inactive: -1.23%,–
CCC1C(=O)NCCN1Cc1ccc2c(c1)CN(Cc1ccc(OC)c(OC)c1)CCO2 (stereo not drawn),inactive: -5.29%,–
O=S(=O)(c1cccc2c(I)cccc12)N1CCCNCC1,inactive: -8.52% and inactive: -2.56%,–
CNC(=O)OCc1cccc(COC(=O)NC)n1,inactive: -0.137%,–
N#C/C(=C\c1ccc(O)c(O)c1)C(N)=O,inactive: -8.88% and inactive: -6.66%,–
CC(C)(C)C(=O)OCOP(=O)(COCCn1cnc2c(N)ncnc21)OCOC(=O)C(C)(C)C,inactive: 6.75%,–
c1ccc(CNc2ncncc2-c2ccc3c(c2)OCO3)cc1,inactive: -13.8%,–
